These are yes or no findings as the source states them, for the method shown. Binding seen in cells or lysates may run through a third protein. Some binding calls cover weakened binding; strength is not graded here. For some assays here: Sequences can lack the tags named with a protein.
T1: Igo1-Pk3 (endogenous Igo1 tagged at the C-terminus with 3 Pk epitopes), from RIM15 wild type cells (budding yeast) (UniProt P53897)
T1 sequence (chain, phosphoserine at 64 (Rim15-dependent)): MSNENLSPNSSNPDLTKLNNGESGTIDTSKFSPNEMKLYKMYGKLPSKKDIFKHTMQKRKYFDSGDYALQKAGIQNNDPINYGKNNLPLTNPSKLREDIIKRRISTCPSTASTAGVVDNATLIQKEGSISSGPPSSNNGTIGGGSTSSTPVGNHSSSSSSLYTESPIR

Sequences of proteins named here, by UniProt entry; tags and fusion partners are left off.
UniProt P38903: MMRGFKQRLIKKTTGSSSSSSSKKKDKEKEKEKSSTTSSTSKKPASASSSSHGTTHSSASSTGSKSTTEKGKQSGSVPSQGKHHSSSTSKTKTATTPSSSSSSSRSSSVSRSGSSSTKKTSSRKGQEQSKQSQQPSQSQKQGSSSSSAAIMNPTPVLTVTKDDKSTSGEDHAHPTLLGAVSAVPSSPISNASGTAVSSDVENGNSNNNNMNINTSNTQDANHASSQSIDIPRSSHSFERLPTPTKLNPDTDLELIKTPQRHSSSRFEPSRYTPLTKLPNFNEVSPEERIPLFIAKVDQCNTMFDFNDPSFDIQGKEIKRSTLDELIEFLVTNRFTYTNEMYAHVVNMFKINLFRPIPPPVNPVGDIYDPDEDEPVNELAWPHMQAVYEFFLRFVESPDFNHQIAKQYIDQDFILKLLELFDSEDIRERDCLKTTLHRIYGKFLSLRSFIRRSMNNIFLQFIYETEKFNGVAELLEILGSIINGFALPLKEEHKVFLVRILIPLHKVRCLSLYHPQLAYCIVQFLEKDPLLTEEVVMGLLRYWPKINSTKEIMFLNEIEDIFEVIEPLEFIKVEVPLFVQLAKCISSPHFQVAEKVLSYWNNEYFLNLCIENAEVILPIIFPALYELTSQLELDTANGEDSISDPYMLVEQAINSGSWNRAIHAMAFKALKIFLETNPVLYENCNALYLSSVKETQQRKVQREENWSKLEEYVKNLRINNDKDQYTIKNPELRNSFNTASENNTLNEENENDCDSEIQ
UniProt P23594: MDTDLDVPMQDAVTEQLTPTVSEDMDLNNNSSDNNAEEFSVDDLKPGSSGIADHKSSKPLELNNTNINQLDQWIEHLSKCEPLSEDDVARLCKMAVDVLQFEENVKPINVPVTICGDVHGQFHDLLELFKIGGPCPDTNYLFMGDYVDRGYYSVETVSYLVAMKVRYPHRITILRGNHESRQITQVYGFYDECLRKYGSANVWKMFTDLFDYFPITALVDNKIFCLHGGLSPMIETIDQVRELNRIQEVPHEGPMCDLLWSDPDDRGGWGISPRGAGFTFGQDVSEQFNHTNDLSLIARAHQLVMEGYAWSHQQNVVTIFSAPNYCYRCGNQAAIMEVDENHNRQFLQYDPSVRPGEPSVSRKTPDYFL

T2: HA-Cdc55 expressed at endogenous levels from the CDC55 promoter (budding yeast) (UniProt Q00362)
T2 sequence: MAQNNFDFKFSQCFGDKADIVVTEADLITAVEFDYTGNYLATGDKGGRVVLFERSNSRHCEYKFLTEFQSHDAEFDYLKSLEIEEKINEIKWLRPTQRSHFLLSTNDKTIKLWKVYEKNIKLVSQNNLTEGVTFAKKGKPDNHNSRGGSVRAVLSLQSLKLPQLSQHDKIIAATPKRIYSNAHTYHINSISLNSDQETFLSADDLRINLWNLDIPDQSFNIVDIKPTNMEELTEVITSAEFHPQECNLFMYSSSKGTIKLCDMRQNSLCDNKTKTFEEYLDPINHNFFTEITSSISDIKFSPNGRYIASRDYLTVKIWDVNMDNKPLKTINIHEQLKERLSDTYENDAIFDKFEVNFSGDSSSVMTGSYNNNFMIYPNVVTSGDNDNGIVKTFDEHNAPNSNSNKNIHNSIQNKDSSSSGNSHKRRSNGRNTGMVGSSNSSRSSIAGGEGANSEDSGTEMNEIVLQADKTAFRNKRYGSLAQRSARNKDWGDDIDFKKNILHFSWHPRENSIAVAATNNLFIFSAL

T3: Igo1-S64A-myc8 (budding yeast) (UniProt P53897)
T3 sequence: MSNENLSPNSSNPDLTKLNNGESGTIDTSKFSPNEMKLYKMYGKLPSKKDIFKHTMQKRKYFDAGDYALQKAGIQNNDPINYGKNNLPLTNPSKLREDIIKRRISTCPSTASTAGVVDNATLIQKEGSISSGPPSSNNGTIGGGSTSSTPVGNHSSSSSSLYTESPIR

T4: Igo1-myc8 (budding yeast) (UniProt P53897)
T4 sequence (chain, phosphoserine at 64 (shown by Phos-tag gels, lost in rim15Δ and S64A controls)): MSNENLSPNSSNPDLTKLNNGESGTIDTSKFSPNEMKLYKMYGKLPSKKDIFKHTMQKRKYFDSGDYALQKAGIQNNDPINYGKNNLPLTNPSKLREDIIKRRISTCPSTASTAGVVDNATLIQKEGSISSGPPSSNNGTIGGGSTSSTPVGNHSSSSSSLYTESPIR

T5: Zds1-Pk6 (budding yeast) (UniProt P50111)
T5 sequence: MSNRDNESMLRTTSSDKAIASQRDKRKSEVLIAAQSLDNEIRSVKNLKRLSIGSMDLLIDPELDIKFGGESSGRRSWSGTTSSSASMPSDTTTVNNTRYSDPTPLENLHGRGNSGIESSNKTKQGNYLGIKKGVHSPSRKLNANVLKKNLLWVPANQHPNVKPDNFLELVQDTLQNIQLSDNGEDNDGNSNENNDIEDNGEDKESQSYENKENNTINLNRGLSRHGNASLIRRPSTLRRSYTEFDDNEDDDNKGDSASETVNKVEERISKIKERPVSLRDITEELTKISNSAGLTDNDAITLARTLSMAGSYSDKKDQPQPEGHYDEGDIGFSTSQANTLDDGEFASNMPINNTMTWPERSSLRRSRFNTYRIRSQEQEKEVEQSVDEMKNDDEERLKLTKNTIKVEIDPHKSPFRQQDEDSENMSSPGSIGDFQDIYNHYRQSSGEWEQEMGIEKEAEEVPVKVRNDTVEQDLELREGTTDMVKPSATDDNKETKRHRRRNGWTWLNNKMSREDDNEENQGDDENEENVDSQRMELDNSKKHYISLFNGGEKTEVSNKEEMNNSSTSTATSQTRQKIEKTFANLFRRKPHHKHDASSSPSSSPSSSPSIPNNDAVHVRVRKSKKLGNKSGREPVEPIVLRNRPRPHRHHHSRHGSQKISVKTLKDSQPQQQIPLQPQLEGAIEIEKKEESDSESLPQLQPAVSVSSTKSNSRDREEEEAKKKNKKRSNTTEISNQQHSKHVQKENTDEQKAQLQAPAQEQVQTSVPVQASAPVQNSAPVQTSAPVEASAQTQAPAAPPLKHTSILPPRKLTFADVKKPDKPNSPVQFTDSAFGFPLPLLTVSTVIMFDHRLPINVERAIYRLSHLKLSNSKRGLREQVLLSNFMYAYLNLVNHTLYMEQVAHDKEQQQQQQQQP


Columns and labels:
[1] = target: T1, Igo1-Pk3 (endogenous Igo1 tagged at the C-terminus with 3 Pk epitopes), from RIM15 wild type cells (budding yeast); experiment: co-IP; anti-Pk antibody pre-adsorbed to protein A-sepharose, cleared extracts of yeast cells (cycling, released from alpha factor at 25°C, or hydroxyurea; wild type, rim15Δ, igo1Δ igo2Δ or zds1Δ zds2Δ); lysis buffer 50 mM Tris-Cl pH 7.5, 150 mM NaCl, 10% glycerol, 1 mM EDTA, 1% NP40; western blot
[2] = target: T2, HA-Cdc55 expressed at endogenous levels from the CDC55 promoter (budding yeast); experiment: co-IP; HA-tagged Cdc55 immunoprecipitated with anti-HA (12CA5) cross-linked to BSA-coated protein A-Sepharose from whole-cell extracts of wild type or igo1Δ igo2Δ yeast; immunoblot for Pph21 and Tpd3
[3] = target: T3, Igo1-S64A-myc8 (budding yeast); experiment: co-IP; co-immunoprecipitation of HA3-Cdc55 with Igo1-myc8 or Igo1-S64A-myc8 from yeast cells, in the presence or absence of RIM15; which of the two was precipitated is not stated
[4] = target: T4, Igo1-myc8 (budding yeast); experiment: as above
[5] = target: T5, Zds1-Pk6 (budding yeast); experiment: co-IP; anti-Pk antibody pre-adsorbed to protein A-sepharose, cleared extracts of yeast cells (cycling, released from alpha factor at 25°C, or hydroxyurea; wild type, rim15Δ, igo1Δ igo2Δ or zds1Δ zds2Δ); lysis buffer 50 mM Tris-Cl pH 7.5, 150 mM NaCl, 10% glycerol, 1 mM EDTA, 1% NP40; western blot

| binding [1] | binding [2] | binding [3] | binding [4] | binding [5] | Molecule |
| --- | --- | --- | --- | --- | --- |
| no binding | – | – | – | – | Rts1-HA3 (from UniProt P38903 1-757) |
| binds | binds | – | – | – | Pph21 (from UniProt P23594 1-369) (enzyme) |
| binds | – | binds weakly | binds | binds | HA3-Cdc55 (protein, UniProt Q00362 1-526) MAQNNFDFKFSQCFGDKADIVVTEADLITAVEFDYTGNYLATGDKGGRVVLFERSNSRHCEYKFLTEFQSHDAEFDYLKSLEIEEKINEIKWLRPTQRSHFLLSTNDKTIKLWKVYEKNIKLVSQNNLTEGVTFAKKGKPDNHNSRGGSVRAVLSLQSLKLPQLSQHDKIIAATPKRIYSNAHTYHINSISLNSDQETFLSADDLRINLWNLDIPDQSFNIVDIKPTNMEELTEVITSAEFHPQECNLFMYSSSKGTIKLCDMRQNSLCDNKTKTFEEYLDPINHNFFTEITSSISDIKFSPNGRYIASRDYLTVKIWDVNMDNKPLKTINIHEQLKERLSDTYENDAIFDKFEVNFSGDSSSVMTGSYNNNFMIYPNVVTSGDNDNGIVKTFDEHNAPNSNSNKNIHNSIQNKDSSSSGNSHKRRSNGRNTGMVGSSNSSRSSIAGGEGANSEDSGTEMNEIVLQADKTAFRNKRYGSLAQRSARNKDWGDDIDFKKNILHFSWHPRENSIAVAATNNLFIFSAL |
| binds | – | – | – | – | Tap42 (protein, UniProt Q04372 1-366) MASVTEQFNDIISLYSTKLEHTSLRQDSPEYQGLLLSTIKKLLNLKTAIFDRLALFSTNETIDDVSTASIKFLAVDYYLGLLISRRQSNDSDVAQRQSMKLIYLKKSVESFINFLTLLQDYKLLDPLVGEKLGNFKDRYNPQLSELYAQPKNNKDLSGAQLKRKEKIELFQRNKEISTKLHCLELELKNNDEDHDHDELLRELYLMRLHHFSLDTINNIEQNLFECEMLSNFLKNSVHEVKSSGTQIRKESNDDDSTGFTDKLENINKPLIDKKGQVLRNFTLVDKRQQLQQKVRGYGQYGPTMSVEEFLDKEFEEGRVLQGGEEPEQAPDEENMDWQDRETYKAREWDEFKESHAKGSGNTMNRG |
